# Data published in PubChem BioAssay AID1963576 (National Center for Advancing Translational Sciences (NCATS), 2024).
# Hit rate of the full screen: of about 46,000 compounds, about 60 (0.1%) were called active. Inconclusive results (about 3%) are left out. Calls follow the shape of the dose curve; as a rule, active = well fitted inhibition curve with a large enough effect; inconclusive = small, poorly fitted or top-dose-only effect; inactive = no such curve, though single readings can be large or run the other way. Some of the results follow.
# Assay: Primary qHTS assay for Inhibitors of ovarian cancer metastasis using an organotypic tumor microenvironment (TME) model. Also: nearly all actives have a fitted effect of over 65% in size.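 As to activity change, negative = inhibition: plate controls were DMSO wells for no effect and tomatine positive control wells for full effect.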
# Conditions: SKOV3ip1-GFP adhesion/invasion on 3D omental model, fluorescence; series mostly up to 45.8 µM; activity change, negative = inhibition: at the top concentration
# How it was run: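 Primary human omental fibroblast/mesothelial 3D culture pre-formed 48 h. SKOV3ip1-GFP cells added with compounds (0.36-46 umol/L), incubated 2 h RT/16 h 37 C, fixed; GFP cells quantified at 488/509 nm.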
Structure (SMILES),"activity change, negative = inhibition",outcome
O=C(CSc1nc2c(c(=O)[nH]1)CCC2)Nc1cc(C(F)(F)F)ccc1Cl,inactive: 1.56%,–
CCc1ccc(NC(=O)C(=O)NCCc2sc(-c3ccc(C)cc3)nc2C)cc1,–,inactive
CSc1ccc(-c2nc3cc(C)ccn3c2Nc2ccc(C)cc2)cc1,–,inactive
Cc1cccc(-c2nc(S(=O)(=O)c3ccccc3)c(N3CCN(c4ccccc4)CC3)o2)c1,inactive: -5.56%,–
COc1ccc(NCc2cccn2-c2nnc(N3CCC(C)CC3)s2)c(OC)c1,inactive: -7.78%,–
CCOC(=O)c1cc(S(=O)(=O)Nc2cc(C)c(Cl)cc2OC)[nH]n1,inactive: 7.81%,–
COc1c(Cl)cc(Cl)cc1C(=O)Nc1cccc2cccnc12,inactive: 3.64%,–
CCc1cccc(NC(=O)CSc2nccn2C)c1,inactive: 4.08%,–
Cc1ccc(C(=O)c2cn(Cc3ccccc3)c3cc4c(cc3c2=O)OCCO4)cc1,inactive: 9.09%,–
Cn1ccc2c(OCC(=O)NCc3ccc(F)cc3)cccc2c1=O,–,inactive
Cc1cc(C)c(NC(=O)Nc2sc3nc4n(c(=O)c3c2C)CCC(C)CC4)c(C)c1 (stereo unspecified),–,inactive
Cc1cc(C)cc(Nc2ncnc3sc4c(c23)CCCC4)c1,inactive: -4.9%,–
CC(=O)c1ccc(NC(=O)CSc2nnc(NC(=O)NC3CCCCC3)s2)cc1,–,inactive
Cc1ccn2c(Nc3ccc(C(C)C)cc3)c(-c3ccsc3)nc2c1,inactive: -3.65%,–
CC(C)OCCCNC(=O)c1c2c(nc3ccccc13)C(=O)N(C1CCCCC1)C2,–,inactive
Cc1cccc(Cn2c(CNC(=O)c3ccccc3)nc3ccccc32)c1,inactive: -0.756%,–
Cc1nn(C(C)C(=O)Nc2cccc(F)c2)c(=O)c2c1sc1ccccc12 (stereo unspecified),inactive: 4.7%,–
COCCNC(=O)CCSc1nc(-c2ccc(OC)cc2)cc(C(F)(F)F)n1,inactive: 2.12%,–
Cc1ccc(Nc2c(-c3ccc(N4CCOCC4)cc3)nc3ncccn23)c(C)c1,–,inactive
CCCCCOc1ccccc1Cn1c(=O)oc2ccc(C)cc21,inactive: 1.62%,–
O=C(Cn1c(-c2cccs2)cc2ccccc21)NCCCN1CCN(c2ccc(F)cc2)CC1,inactive: 13%,–
Cc1ccccc1C(OCCN(C)C)c1ccccc1 (stereo unspecified),inactive: 25.2%,–
O=C(NC1CCCC1)c1ccc(CSc2nc3cccnc3n2Cc2ccccc2F)cc1,inactive: -0.336%,–
CC1CCCN(Cc2c(O)ccc3c(=O)c(-c4ccccc4Cl)c(C(F)(F)F)oc23)C1 (stereo unspecified),inactive: 1.11%,–

Structure (SMILES),"activity change, negative = inhibition",outcome
O=C(COc1ccc(Cl)cc1)N(Cc1ccco1)c1ccccn1,inactive: -1.65%,–
Cc1cc(C)c(NS(=O)(=O)c2ccc3c(c2)NC(=O)CCS3)c(C)c1,inactive: 6.4%,–
CCC(C)Cn1c(/C=C/c2ccccc2)nc2ccccc21 (stereo unspecified),inactive: -3.67%,–
CCCCn1c(=O)c2oc3ccccc3c2n(Cc2cccc(F)c2)c1=O,inactive: 1.04%,–
O=C(CSc1oc(-c2ccco2)nc1S(=O)(=O)c1ccc(Br)cc1)c1ccccc1,inactive: 0.317%,–
CCS(=O)(=O)c1ccc(O)c(Nc2cc(C)nc(SC)n2)c1,inactive: 3.8%,–
CCC(=O)C1=C(c2ccc(Cl)cc2)N(C(=O)CC)n2c(C)nnc2S1,inactive: -21%,–
Cc1ccc(S(=O)(=O)C(CNC(=O)c2ccc(F)c(F)c2)c2ccco2)cc1 (stereo unspecified),inactive: 8.62%,–
Cc1cncc2cccc(S(=O)(=O)N3CCCN(C(=O)CN)C[C@@H]3C)c12,inactive: 2.42%,–
CC1CCN(S(=O)(=O)c2nnc(NC(=O)c3ccc(C(C)C)cc3)s2)CC1,inactive: -0.328%,–
O=C(CCCN1C(=O)c2cccnc2Oc2ccc(Cl)cc21)NCc1ccccc1F,inactive: 14.3%,–
COc1ccc2cc(-c3nc(-c4ccc(S(C)=O)cc4)[nH]c3-c3ccncc3)ccc2c1 (stereo unspecified),inactive: 0.892%,–
CC(C)c1cnc2c(c1SCC(=O)Nc1ccc(OC(F)(F)F)cc1)c(=O)n(C)c(=O)n2C,inactive: -6.5%,–
O=C(c1cc(-c2cccc(Cl)c2)on1)N1CCN(c2ccccc2)CC1,inactive: -8.33%,–
Cc1ccc(NC2=C(CC(=O)O)C(c3ccc(F)cc3)N(c3ccc(C)cc3)C2=O)cc1 (stereo unspecified),inactive: -9.35%,–
Cc1ccc(CNC(=O)CCN2C(=O)COc3ccc(C)cc32)cc1,inactive: 11.7%,–
CCOC(=O)c1cccc(NC(=O)c2cc3c(=O)n(C)c4ccccc4c3n2C)c1,–,inactive
CCc1nnc2c(Nc3cccc(F)c3)nc3ccc(C(=O)c4ccccc4)cc3n12,inactive: 1.65%,–
CCOc1ccccc1NC(=O)N(Cc1ccc(F)cc1)C1CCN(CC)CC1,inactive: -9.02%,–
Cc1ccsc1CN(C(=O)c1oc2ccc(F)cc2c1C)C1CCS(=O)(=O)C1 (stereo unspecified),inactive: -1.06%,–
COc1ccc(NC(=O)c2c(NCc3ccc(N(C)C)cc3)sc3c2CCC3)cc1,inactive: 4.53%,–
Cc1ccc(CNC(=O)CC(C)CC2=NS(=O)(=O)c3ccccc3N2)cc1 (stereo unspecified),inactive: 1.22%,–
CCc1ccc(N2CCn3c2nc2c3c(=O)n(C/C=C/c3ccccc3)c(=O)n2C)cc1,inactive: -1.63%,–
COc1cccc(CNS(=O)(=O)c2cc3[nH]c(=O)c(=O)[nH]c3cc2C)c1,inactive: 8.08%,–

Structure (SMILES),"activity change, negative = inhibition",outcome
CCc1ccc(NC(=O)c2ccc(F)c(S(=O)(=O)N3CCC4(CC3)OCCO4)c2)cc1,inactive: 15.9%,–
Cc1ccc(C)c(-n2c3nc(=O)[nH]c(=O)c-3cc3c(C)nn(-c4ccccc4)c32)c1,inactive: 9.88%,–
CCOc1ccc(-c2nonc2NC(=O)c2oc3cc(C)c(C)cc3c2C)cc1OCC,inactive: 4.39%,–
Cc1ccc(NC(=O)C2CCCN2S(=O)(=O)c2cccc3nsnc23)c(C)c1 (stereo unspecified),inactive: 0.693%,–
Cc1ccc(Nc2ncc(C(=O)N3CCN(c4ccc(F)cc4)CC3)c3ccccc23)cc1Cl,–,inactive
N#Cc1ccc(C(=O)NCc2ccc3c(c2)CCN3C(=O)c2ccc(F)cc2)cc1,–,inactive
CCOC(=O)c1ccc(N2C(=O)c3n[nH]c(C)c3C2c2ccccc2OC)cc1 (stereo unspecified),–,inactive
CCc1ccc2oc(C(=O)Nc3c(C)n(C)n(-c4ccccc4)c3=O)cc(=O)c2c1,–,inactive
Cc1ccccc1Cn1c2ccccc2c2cnn(CC(=O)NC(C)CCc3ccccc3)c(=O)c21 (stereo unspecified),inactive: 23.9%,–
Cc1cccc(Cn2nc(C)n3c(cc4cc(C)ccc43)c2=O)c1,–,inactive
COC(=O)c1ccc(NC(=O)CN(CCc2ccccc2)S(=O)(=O)c2ccc(OC)cc2)cc1,inactive: 3.15%,–
Cc1cccc(CCNc2ncnc3onc(-c4ccc(Cl)cc4)c23)c1,–,inactive
CCOc1ccc(-n2c(SCC(=O)N3CCC(C)CC3)nc3c([nH]c4ccccc43)c2=O)cc1,inactive: -4.66%,–
CCn1c(C(=O)NCc2ccc(OC(C)C)cc2)cc2oc3ccccc3c21,inactive: 3.95%,–
CCOc1ccc(C(=O)NCCc2sc(-c3ccc(OC)c(OC)c3)nc2C)cc1,inactive: -10.8%,–
Cc1ccccc1OCC(=O)Nc1sc2c(c1C(=O)OC(C)C)CCCC2,inactive: 0.385%,–
Cc1ccc(C)c(N2CCN(C(=O)c3cc(C)nc4c3c(C)nn4-c3cccc(F)c3)CC2)c1,inactive: -6.15%,–
Cc1ccc(C)c(N2CCN(c3ccc4cc(S(=O)(=O)N5CCC(C)CC5)ccc4n3)CC2)c1,inactive: -2.47%,–
COc1ccccc1NC(=O)c1cc(S(=O)(=O)N2CCN(c3ccccc3Cl)CC2)ccc1F,inactive: 1.27%,–
COC(=O)c1ccc(C2c3c(oc4ccccc4c3=O)C(=O)N2c2nc(C)c(C(=O)OC)s2)cc1 (stereo unspecified),inactive: 0.693%,–
O=C(Nc1cc(Cl)cc(Cl)c1)c1ccc2c(c1)N(Cc1cccc(Cl)c1)C(=O)c1ccccc1S2=O (stereo unspecified),inactive: -4.57%,–
Cc1nn(CC(=O)O)c(=O)c2cc3cc(F)ccc3n12,inactive: -2.41%,–
COc1ccc2c(CNCc3cccs3)c(C(=O)O)n(Cc3ccc(C)cc3)c2c1,inactive: 7.2%,–
Cc1ccc2c(c1)c(=O)c1ccccc1n2CCCC(=O)Nc1cc(Cl)ccc1C,inactive: 1.68%,–

Structure (SMILES),"activity change, negative = inhibition",outcome
Cc1oc2ccc(O)c(CN3CCN(C)CC3)c2c1C(=O)Nc1cccc(Cl)c1C,inactive: -7.39%,–
Cc1cccc(-n2c(=O)c3c(c4cc(C)ccc4n3C)n(CC(=O)NCC3CCCO3)c2=O)c1 (stereo unspecified),inactive: -1.68%,–
CCCOc1ccc(C(=O)Nc2cc3c(cc2N2CCOCC2)n(C)c(=O)n3C)cc1,inactive: -26.7%,–
Cc1cccc(N2C(=O)C(CC(=O)Nc3ccc(Cl)cc3)N(Cc3ccco3)C2=O)c1 (stereo unspecified),inactive: -2.91%,–
Cc1oc(-c2cccc(Cl)c2)nc1CS(=O)(=O)CC(=O)NCc1ccccc1Cl,–,inactive
Cc1cc(-c2ccc(CC(=O)Nc3ccc(-c4cccnc4)cc3)cc2)ccn1,inactive: -11.8%,–
COC(=O)c1scc(-c2ccc(C)cc2)c1S(=O)(=O)Nc1ccc(F)cc1F,inactive: -0.627%,–
Cc1ccc(CN2CCCn3nc(C(=O)NC(C)C)cc3C2=O)cc1,inactive: 12.6%,–
CC(=O)Nc1nonc1-c1nnc(SCC(=O)Nc2cccc(F)c2)n1-c1ccccc1,inactive: 0.738%,–
CC(=O)c1ccc(NC(=O)C2Cc3ccccc3N2C(=O)c2ccccc2)cc1 (stereo unspecified),–,inactive
Cc1ccc(N2CCN(S(=O)(=O)c3cc(C(=O)Nc4cc(Cl)cc(Cl)c4)ccc3F)CC2C)cc1 (stereo unspecified),inactive: -4.07%,–
Cc1nn(CC(=O)NCc2ccc(Cl)cc2)c(=O)c2cc3sccc3n12,–,inactive
O=C(Nc1ccc2oc(-c3cccnc3)nc2c1)c1ccc(Br)cc1,inactive: 1.96%,–
COc1ccc(NC(=O)Cn2c(=O)n(Cc3nc(-c4ccccc4)no3)c(=O)c3cc4c(cc32)OCO4)c(OC)c1,inactive: -7.19%,–
COc1ccccc1N1CCN(c2ccc(=O)n(CC(=O)NCc3ccc(OC(C)C)cc3)n2)CC1,inactive: -20%,–
Cc1ccc(NC(=O)Cn2cc3c(n2)CCCC3)c(Cl)c1,inactive: -1.7%,–
COc1ccc(Oc2c(C(F)(F)F)oc3c(CN4CCCC(C)C4)c(O)ccc3c2=O)cc1 (stereo unspecified),–,inactive
CN(C)S(=O)(=O)c1ccc2c(c1)N(CC(=O)NCc1ccc(F)cc1)C(=O)CS2,–,inactive
COc1ccc(C)cc1NC(=O)Cn1c(=O)c(C(F)(F)F)nc2ccccc21,inactive: -9.84%,–
COc1ccc(-n2nc(C(=O)N3CCN(c4ccc(F)cc4)CC3)c3c4ccccc4n(C)c3c2=O)cc1,inactive: -6.69%,–
CC1=C(c2ccc(C)cc2)S(=O)(=O)NC1=NCCCN1CCN(c2ccccc2F)CC1,–,inactive
COc1ccc(-c2cc3ccc(O)c(CN4CCC(C)CC4)c3oc2=O)cc1,–,inactive
COc1ccc(-n2nc(C(=O)Nc3cc(OC)c(OC)c(OC)c3)c(=O)n(C)c2=O)cc1,–,inactive
O=C(Nc1ccc2oc(-c3cccnc3)nc2c1)c1ccc(-c2ccccc2OC(F)(F)F)o1,inactive: 2.82%,–
